PubChem BioAssay AID588453 (National Center for Advancing Translational Sciences (NCATS), 2011)
Among all 390,000 compounds or so, about 4,000 (1%) were called active. The shares of active, inactive and inconclusive entries below differ from those in the screen. The call rests on the fitted dose curve; in most records, active means well fitted inhibition curve with a large enough effect; inconclusive means small, poorly fitted or top-dose-only effect; inactive means no such curve, though single readings can be large or run the other way. Potencies beside an inconclusive call are fits to weak or partial responses and may not hold up.
Further: nearly all actives have a fitted effect of over 65% in size.
On the % scale 0 is the no-effect control and ±100 the full control effect; potency means the concentration at half of the fitted maximal effect; tags describe the fitted curve by direction and shape.

These compounds were tested against Thioredoxin reductase 1, cytoplasmic (Rattus norvegicus) (UniProt O89049) (assay: qHTS Assay for Inhibitors of Mammalian Selenoprotein Thioredoxin Reductase 1 (TrxR1): qHTS). Settings: recombinant rTrxR1, NADPH fluorescence consumption, selenite substrate; series mostly up to 114 µM; activity change, negative = inhibition: at the top concentration.
Sequence of UniProt O89049 (O89049 whole entry, looked up): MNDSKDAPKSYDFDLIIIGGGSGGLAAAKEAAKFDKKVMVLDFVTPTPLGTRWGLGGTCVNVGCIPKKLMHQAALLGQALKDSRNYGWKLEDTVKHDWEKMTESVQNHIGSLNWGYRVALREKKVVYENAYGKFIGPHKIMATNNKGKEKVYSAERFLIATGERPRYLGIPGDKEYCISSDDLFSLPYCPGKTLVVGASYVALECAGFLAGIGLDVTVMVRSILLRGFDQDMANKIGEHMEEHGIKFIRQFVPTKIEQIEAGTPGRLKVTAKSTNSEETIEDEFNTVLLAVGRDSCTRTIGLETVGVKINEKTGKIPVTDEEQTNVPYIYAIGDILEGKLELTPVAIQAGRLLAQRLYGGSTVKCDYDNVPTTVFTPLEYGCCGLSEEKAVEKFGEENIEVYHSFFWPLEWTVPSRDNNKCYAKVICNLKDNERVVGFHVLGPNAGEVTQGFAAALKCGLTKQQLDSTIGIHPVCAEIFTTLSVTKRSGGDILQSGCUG
Procedure, shortened: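 Rat TrxR1 (90 nM in the dispensed reagent) was pre-reduced with 400 uM NADPH for 5 min at room temperature, then incubated with compound for 15 min. After 400 uM selenite was added, NADPH fluorescence (Ex 340/Em 450 nm) was followed for 8 min.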
With `Cc1cccc(C)c1NC(=O)CSc1nnc(C)n1CC1CCCO1` (stereo not drawn) the “activity change, negative = inhibition” value was inactive: 15.3% [at 57.1 µM].
For `CCNC(=S)N/N=C/c1cccs1`, the Potency was inconclusive: 22.4 µM [inhibitor, single point].
In the case of `CCOc1cc(CNc2ccc(N3CCOCC3)cc2)cc(Br)c1OCC`, the “activity change, negative = inhibition” value is reported as inactive: -0.725% [at 57.1 µM].
For `CC(=O)Oc1cccc2c1C(=O)C1CC=CC(OC(C)=O)C1C2=O` (stereo not drawn), the Potency was inconclusive: 50.1 µM [inhibitor, partial curve].
With `CCOc1ccc(CNc2cc(C)nc3nc(-c4cccc(C)c4)nn23)cc1OC` the “activity change, negative = inhibition” value was inactive: -8.43% [at 57.1 µM].
With `N#Cc1ccccc1-n1c(N)c(C(=O)N2CCCC2)sc1=S` the Potency was inconclusive: 79.4 µM [inhibitor, single point].
`COCCCN(C(=S)NC(=O)c1ccc(C(C)(C)C)cc1)c1c(N)n(Cc2ccccc2)c(=O)[nH]c1=O` was tested, and the Potency was inconclusive: 31.6 µM [inhibitor, partial curve, poor fit].
With `C/C=C\C=C/C(=O)Nc1cccc(C2=NOC3(C2)C[C@H](C(N)=O)N(C(=O)c2ccc(OC)cc2)C3)c1` (stereo partly drawn) the Potency was inconclusive: 8.91 µM [inhibitor, partial curve, poor fit].
`O=C(COC(=O)CCNS(=O)(=O)c1ccc(Cl)cc1)NCc1ccco1` was tested, and the Potency was inconclusive: 79.4 µM [inhibitor, partial curve].
For `O=S(=O)(c1ccc2nc(-c3ccccc3)[nH]c2c1)N1CCN(c2cccc(Cl)c2)CC1`, the Potency was inconclusive: 20 µM [inhibitor, partial curve, poor fit].
`CCOC(=O)c1ccc(N2CN=C3SCC(=O)N3C2)cc1` was tested, and the Potency was inconclusive: 79.4 µM [inhibitor, partial curve, poor fit].
`COc1cc(NC(=O)CCS(=O)(=O)c2ccc3c(c2)oc(=O)n3C)cc(OC)c1` was tested, and the Potency was inconclusive: 25.1 µM [inhibitor, partial curve, poor fit].
For `S=c1[nH]nc(-c2ccco2)n1/N=C/C=C/c1ccccc1`, the “activity change, negative = inhibition” value was inactive: -24.7%.
`c1csc(-c2ccnc3ncnn23)c1` was tested, and the Potency was inconclusive: 89.1 µM [inhibitor, partial curve, poor fit].
With `Cc1occc1C(=O)Nc1ccccc1NC(=O)c1ccoc1C` the Potency was inconclusive: 15.8 µM [inhibitor, full curve].
`Cc1ccc(-c2nnc(NC(=O)c3ccc([N+](=O)[O-])o3)o2)c(C)c1` was tested, and the Potency was inconclusive: 50.1 µM [inhibitor, partial curve].
With `COC(=O)c1ccccc1NC(=S)NC(=O)c1ccccc1` the Potency was inconclusive: 44.7 µM [inhibitor, partial curve, poor fit].
`CCCCCCSc1ccc([C@@H]2[C@H]3C(=O)N(CC)C(=O)[C@H]3[C@]3(C(=O)OC)CCCCN23)cc1OC` was tested, and the Potency was inconclusive: 79.4 µM [inhibitor, single point].
